Consider three molecules from article PMC8139826.

By UniProt entry, the sequences of proteins in these tests, tags left out.
UniProt Q15078: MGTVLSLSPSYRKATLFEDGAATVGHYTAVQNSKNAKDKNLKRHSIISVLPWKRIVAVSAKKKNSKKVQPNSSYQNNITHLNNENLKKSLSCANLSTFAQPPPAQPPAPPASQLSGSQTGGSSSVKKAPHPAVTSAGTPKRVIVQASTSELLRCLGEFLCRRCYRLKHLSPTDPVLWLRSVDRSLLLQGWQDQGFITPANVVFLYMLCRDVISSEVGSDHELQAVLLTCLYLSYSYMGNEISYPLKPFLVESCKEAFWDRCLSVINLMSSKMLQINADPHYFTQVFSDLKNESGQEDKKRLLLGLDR
UniProt O08539: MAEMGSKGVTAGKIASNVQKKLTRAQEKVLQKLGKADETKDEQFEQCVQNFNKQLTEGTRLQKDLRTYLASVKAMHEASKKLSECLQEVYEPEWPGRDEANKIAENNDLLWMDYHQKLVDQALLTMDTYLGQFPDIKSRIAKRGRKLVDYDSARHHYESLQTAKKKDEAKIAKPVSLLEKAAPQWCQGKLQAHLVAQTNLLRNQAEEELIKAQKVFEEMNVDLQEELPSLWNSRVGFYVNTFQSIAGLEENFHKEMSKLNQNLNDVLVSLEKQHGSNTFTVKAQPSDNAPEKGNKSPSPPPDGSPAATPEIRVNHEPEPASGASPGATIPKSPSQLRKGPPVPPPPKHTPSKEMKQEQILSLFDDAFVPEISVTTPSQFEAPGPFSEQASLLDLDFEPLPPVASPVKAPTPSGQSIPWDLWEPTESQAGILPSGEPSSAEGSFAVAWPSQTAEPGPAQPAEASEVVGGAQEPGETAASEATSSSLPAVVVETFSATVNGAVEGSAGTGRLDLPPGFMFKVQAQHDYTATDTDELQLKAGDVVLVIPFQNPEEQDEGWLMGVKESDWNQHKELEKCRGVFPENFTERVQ

Results are given in words; binding and its absence hold for the method and conditions named. Binding seen in cells or lysates may run through a third protein. Some results given as binding are weak or reduced against the parent protein; the word gives no strength. Tags and fused reporters may be left off the sequences shown.

Assay [1] deals with T1, bGST-Amphiphysin I-FL (UniProt P49418).
T1 sequence: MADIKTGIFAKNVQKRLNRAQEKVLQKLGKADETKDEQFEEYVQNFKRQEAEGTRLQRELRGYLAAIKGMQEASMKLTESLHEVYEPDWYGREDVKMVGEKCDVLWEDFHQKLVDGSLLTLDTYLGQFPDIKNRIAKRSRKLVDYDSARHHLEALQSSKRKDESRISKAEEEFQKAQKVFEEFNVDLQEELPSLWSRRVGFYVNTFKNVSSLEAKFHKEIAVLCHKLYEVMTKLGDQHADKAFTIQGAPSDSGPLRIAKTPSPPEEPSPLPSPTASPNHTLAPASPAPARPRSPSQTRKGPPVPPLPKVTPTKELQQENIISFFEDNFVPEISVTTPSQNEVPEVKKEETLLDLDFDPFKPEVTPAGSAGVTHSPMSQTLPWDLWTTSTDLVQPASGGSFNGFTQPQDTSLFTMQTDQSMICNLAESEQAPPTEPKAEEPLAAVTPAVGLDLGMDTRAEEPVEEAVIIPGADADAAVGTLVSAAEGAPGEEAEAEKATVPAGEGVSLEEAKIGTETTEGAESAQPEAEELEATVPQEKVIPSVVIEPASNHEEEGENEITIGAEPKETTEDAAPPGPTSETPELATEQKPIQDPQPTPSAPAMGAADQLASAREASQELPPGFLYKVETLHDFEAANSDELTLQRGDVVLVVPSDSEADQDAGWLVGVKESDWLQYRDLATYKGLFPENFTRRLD
As to the kind of experiment: pull-down; GST fusions of Amphiphysin I bound to glutathione agarose beads, incubated with mouse brain lysate overnight; beads washed three times with PBST; bound proteins detected by Western blot; only the target purified.

The target in assay [2] is T2, bGST-Amphiphysin I (279-695) (UniProt P49418).
T2 sequence: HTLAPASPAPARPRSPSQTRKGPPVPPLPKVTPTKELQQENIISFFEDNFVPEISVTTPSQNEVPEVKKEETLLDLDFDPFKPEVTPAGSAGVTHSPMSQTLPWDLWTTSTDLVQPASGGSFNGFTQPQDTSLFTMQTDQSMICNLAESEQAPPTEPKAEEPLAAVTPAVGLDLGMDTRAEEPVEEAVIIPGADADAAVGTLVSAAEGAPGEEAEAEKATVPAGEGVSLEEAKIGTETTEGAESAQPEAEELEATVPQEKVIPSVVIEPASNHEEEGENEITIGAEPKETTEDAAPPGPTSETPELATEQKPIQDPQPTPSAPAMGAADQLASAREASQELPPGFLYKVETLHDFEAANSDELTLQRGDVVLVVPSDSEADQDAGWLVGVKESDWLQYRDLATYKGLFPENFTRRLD
The assay is described as above.

For assay [3], the target named is T3, bGST-Amphiphysin I (1-278) (UniProt P49418).
T3 sequence: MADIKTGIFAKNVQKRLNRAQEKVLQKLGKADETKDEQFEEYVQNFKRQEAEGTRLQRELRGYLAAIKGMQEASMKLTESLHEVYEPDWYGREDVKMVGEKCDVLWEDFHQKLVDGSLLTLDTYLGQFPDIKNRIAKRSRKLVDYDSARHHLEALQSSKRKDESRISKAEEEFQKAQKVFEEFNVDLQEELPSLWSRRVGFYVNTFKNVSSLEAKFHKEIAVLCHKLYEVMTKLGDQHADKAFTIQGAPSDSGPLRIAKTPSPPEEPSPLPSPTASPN
The assay is described as above.

Assay [4] concerns the target Flag-His-p35 (UniProt Q15078). As to the kind of experiment: pull-down; His pull-down on Ni-NTA agarose; results: HEK293 cells co-transfected with His-p35, EGFP-Tau and GST-Amphiphysin I fragments; methods: Flag-His-p35 beads incubated overnight with lysates of transfected HEK293 cells; Western blot.

With “Amphiphysin II (from UniProt O08539 1-588)”, the binding result in assay [1] is listed as “binds”; in assay [2], “no binding”; in assay [3], “binds”.

B1: Dynamin I (protein, UniProt P39053 1-867)
chain: MGNRGMEDLIPLVNRLQDAFSAIGQNADLDLPQIAVVGGQSAGKSSVLENFVGRDFLPRGSGIVTRRPLVLQLVNSTTEYAEFLHCKGKKFTDFEEVRLEIEAETDRVTGTNKGISPVPINLRVYSPHVLNLTLVDLPGMTKVPVGDQPPDIEFQIRDMLMQFVTKENCLILAVSPANSDLANSDALKIAKEVDPQGQRTIGVITKLDLMDEGTDARDVLENKLLPLRRGYIGVVNRSQKDIDGKKDITAALAAERKFFLSHPSYRHLADRMGTPYLQKVLNQQLTNHIRDTLPGLRNKLQSQLLSIEKEVDEYKNFRPDDPARKTKALLQMVQQFAVDFEKRIEGSGDQIDTYELSGGARINRIFHERFPFELVKMEFDEKELRREISYAIKNIHGIRTGLFTPDMAFETIVKKQVKKIREPCLKCVDMVISELISTVRQCTKKLQQYPRLREEMERIVTTHIREREGRTKEQVMLLIDIELAYMNTNHEDFIGFANAQQRSNQMNKKKTSGNQDEILVIRKGWLTINNIGIMKGGSKEYWFVLTAENLSWYKDDEEKEKKYMLSVDNLKLRDVEKGFMSSKHIFALFNTEQRNVYKDYRQLELACETQEEVDSWKASFLRAGVYPERVGDKEKASETEENGSDSFMHSMDPQLERQVETIRNLVDSYMAIVNKTVRDLMPKTIMHLMINNTKEFIFSELLANLYSCGDQNTLMEESAEQAQRRDEMLRMYHALKEALSIIGDINTTTVSTPMPPPVDDSWLQVQSVPAGRRSPTSSPTPQRRAPAVPPARPGSRGPAPGPPPAGSALGGAPPVPSRPGASPDPFGPPPQVPSRPNRAPPGVPSLGAWRLNSPQGKHENRAGKARL
B1: the binding result in assay [1] is given as “binds”; in assay [2], “binds”; in assay [3] it was “no binding”.

B2: GST-Amphiphysin I (1-278), expressed in HEK293 (domain or fragment, UniProt P49418 1-278)
chain: T3 sequence
Regarding B2, the binding entry in assay [4] is “binds”.
